# Literature values, collected in article PMC11006913.
# Changes are numbered by the printed parent chain. Some of the results follow.
# Assays:
# Details in all cases: PBM; conditions not shown; double strand, one strand shown; scale: upbm affinity estimate (log intensity, higher = more binding, comparable within an allelic series)
# [1] = biological target: T1, HESX1 N125S (Homo sapiens) (UniProt Q9UBX0)
# T1 sequence: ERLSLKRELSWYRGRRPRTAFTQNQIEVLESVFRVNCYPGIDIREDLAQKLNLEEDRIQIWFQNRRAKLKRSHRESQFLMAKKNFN
# [2] = biological target: T2, HESX1 E149K (Homo sapiens) (UniProt Q9UBX0)
# T2 sequence: T1 sequence with S31N, E55K
# [3] = biological target: T3, HESX1 R160C (Homo sapiens) (UniProt Q9UBX0)
# T3 sequence: T1 sequence with S31N, R66C
# [4] = biological target: PITX2 L100Q (Homo sapiens) (UniProt Q99697)
# [5] = biological target: PITX2 R108H (Homo sapiens) (UniProt Q99697)
# [6] = biological target: PITX2 R130W (Homo sapiens) (UniProt Q99697)
# [7] = biological target: PITX2 T114P (Homo sapiens) (UniProt Q99697)
# [8] = biological target: ISX (Homo sapiens) (UniProt Q2M1V0)
# [9] = biological target: ISX R83Q (Homo sapiens) (UniProt Q2M1V0)
sequence,measurement,setting,value
AATATTTA [8-mer AATATTTA],binding signal,[1],9.25
CATTAAGA [8-mer CATTAAGA],binding signal,[1],9.37
GAGGGAGC [8-mer GAGGGAGC],binding signal,[2],9.92
same,binding signal,[1],7.36
same,binding signal,[3],10
same,binding signal,[4],8.03
same,binding signal,[5],8.01
same,binding signal,[6],7.91
same,binding signal,[7],8.09
AACCCCCG [8-mer AACCCCCG],binding signal,[2],9.79
same,binding signal,[1],7.39
same,binding signal,[3],10
same,binding signal,[8],9.66
same,binding signal,[9],9.69
